Source: paper PMC8766471, “Mutations affecting the N-terminal domains of SHANK3 point to different pathomechanisms in neurodevelopmental disorders” (Scientific Reports, 2022)
Like-named read-outs stand apart in the source and are kept apart here. No constants are given. Whether binding was seen depends on the method and setting. In cells and extracts the contact can be indirect. Some binding calls cover weakened binding; strength is not graded here. For some of these results: Sequences can lack the tags named with a protein.

Protein sequences, listed by entry. Tags and fused reporters are not part of them. Lines headed by an entry give the natural chain unless they say otherwise; changes in a name come on top. Chains listed by the source or under a name are the forms on record and can include a tag or linker. Residues count along the entry.
UniProt Q9JLU4: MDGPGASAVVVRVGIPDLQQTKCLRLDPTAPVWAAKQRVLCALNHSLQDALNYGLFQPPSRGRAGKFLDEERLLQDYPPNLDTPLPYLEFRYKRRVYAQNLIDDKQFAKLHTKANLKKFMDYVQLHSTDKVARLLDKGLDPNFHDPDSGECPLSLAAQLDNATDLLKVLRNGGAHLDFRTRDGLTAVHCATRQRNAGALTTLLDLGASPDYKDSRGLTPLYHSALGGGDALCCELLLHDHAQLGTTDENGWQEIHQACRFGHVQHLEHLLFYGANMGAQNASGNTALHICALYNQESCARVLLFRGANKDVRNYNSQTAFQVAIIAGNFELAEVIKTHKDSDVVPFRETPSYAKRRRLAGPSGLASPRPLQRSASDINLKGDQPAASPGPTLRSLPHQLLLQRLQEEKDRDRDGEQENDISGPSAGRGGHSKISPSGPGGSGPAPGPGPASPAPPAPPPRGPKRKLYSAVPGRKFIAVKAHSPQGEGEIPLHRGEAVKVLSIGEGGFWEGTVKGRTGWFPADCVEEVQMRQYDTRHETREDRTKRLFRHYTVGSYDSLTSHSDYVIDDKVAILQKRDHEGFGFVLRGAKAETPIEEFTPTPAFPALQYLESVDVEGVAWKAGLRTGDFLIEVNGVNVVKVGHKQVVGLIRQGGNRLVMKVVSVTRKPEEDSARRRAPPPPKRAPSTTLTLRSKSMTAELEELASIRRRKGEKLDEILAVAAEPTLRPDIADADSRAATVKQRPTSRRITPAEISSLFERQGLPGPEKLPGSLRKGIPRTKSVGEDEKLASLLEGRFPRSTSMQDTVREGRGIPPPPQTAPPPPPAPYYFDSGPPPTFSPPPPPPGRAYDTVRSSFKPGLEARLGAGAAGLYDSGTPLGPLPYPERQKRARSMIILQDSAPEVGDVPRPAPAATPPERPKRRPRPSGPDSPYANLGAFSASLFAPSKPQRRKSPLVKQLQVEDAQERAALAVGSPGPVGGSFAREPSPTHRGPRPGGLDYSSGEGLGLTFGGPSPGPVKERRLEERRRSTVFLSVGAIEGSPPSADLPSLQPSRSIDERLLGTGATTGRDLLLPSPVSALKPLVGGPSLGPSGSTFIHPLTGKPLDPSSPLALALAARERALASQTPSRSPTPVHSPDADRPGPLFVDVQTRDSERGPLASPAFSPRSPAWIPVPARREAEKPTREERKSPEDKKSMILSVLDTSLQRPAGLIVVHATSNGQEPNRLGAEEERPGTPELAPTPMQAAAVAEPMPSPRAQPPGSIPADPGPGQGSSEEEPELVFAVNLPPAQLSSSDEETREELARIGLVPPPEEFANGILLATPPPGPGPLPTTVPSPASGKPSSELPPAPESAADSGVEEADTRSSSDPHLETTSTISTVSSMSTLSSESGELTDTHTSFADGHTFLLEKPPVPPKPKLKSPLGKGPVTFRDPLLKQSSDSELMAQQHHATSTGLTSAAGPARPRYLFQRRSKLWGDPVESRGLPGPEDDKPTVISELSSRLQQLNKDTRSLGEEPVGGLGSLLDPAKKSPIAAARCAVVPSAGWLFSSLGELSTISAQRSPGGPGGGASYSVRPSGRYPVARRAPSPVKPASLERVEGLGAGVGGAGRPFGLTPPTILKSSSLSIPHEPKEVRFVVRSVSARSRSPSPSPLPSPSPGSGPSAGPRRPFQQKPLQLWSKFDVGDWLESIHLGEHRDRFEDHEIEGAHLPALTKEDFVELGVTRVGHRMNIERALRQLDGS
Shank3 N-terminus (residues 1-339) P141A, mRFP-tagged (Q9JLU4, form named): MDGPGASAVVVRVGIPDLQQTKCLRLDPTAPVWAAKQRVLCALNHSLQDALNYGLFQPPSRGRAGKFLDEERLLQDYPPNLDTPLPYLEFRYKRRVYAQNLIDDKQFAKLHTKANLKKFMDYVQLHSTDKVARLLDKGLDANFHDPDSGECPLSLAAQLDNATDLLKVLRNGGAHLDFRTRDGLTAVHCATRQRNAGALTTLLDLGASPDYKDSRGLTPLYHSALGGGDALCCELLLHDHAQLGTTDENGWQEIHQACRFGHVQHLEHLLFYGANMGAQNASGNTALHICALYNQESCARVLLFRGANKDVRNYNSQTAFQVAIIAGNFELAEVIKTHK
Shank3 N-terminus (residues 1-339) Y272C, mRFP-tagged (Q9JLU4, form named): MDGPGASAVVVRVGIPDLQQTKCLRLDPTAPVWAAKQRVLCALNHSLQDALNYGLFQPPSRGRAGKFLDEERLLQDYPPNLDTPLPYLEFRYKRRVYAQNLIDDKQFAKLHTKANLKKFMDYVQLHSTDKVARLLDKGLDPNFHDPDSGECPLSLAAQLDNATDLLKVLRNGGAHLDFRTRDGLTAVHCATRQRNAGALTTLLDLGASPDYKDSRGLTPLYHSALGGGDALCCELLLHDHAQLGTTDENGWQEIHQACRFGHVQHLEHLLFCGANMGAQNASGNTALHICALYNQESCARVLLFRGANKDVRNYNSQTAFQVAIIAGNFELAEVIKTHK
Shank3 N-terminus (residues 1-339) Q106P, mRFP-tagged (Q9JLU4, form named): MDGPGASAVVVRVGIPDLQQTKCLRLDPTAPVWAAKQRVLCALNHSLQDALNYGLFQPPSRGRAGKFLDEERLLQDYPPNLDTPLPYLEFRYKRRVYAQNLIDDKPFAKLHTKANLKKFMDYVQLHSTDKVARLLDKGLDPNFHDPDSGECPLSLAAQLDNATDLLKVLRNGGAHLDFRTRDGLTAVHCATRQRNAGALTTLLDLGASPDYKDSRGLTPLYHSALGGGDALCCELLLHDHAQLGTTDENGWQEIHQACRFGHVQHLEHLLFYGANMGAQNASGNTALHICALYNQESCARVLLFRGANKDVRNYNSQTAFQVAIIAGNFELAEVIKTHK
Shank3 N-terminus (residues 1-339) T337S, mRFP-tagged (Q9JLU4, form named): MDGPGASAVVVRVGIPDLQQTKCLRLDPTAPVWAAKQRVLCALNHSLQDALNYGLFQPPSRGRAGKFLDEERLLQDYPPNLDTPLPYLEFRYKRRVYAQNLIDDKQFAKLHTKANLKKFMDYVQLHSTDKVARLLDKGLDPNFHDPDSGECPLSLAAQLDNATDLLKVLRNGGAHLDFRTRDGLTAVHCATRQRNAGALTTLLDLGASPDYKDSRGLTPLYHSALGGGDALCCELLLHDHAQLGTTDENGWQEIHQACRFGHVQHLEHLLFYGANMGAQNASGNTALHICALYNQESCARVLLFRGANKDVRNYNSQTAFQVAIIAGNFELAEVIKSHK
Shank3 N-terminus (residues 1-339) G250C, mRFP-tagged (Q9JLU4, form named): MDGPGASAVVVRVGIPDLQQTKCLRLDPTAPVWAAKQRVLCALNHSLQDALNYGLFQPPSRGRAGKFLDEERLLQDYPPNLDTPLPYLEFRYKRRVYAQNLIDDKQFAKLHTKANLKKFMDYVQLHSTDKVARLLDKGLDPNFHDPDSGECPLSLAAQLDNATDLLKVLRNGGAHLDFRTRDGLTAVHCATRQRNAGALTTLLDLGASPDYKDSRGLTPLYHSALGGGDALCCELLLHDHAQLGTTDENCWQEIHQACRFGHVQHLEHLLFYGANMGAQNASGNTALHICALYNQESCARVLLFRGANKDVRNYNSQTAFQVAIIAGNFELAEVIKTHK
Shank3 N-terminus (residues 1-339) Q256H, mRFP-tagged (Q9JLU4, form named): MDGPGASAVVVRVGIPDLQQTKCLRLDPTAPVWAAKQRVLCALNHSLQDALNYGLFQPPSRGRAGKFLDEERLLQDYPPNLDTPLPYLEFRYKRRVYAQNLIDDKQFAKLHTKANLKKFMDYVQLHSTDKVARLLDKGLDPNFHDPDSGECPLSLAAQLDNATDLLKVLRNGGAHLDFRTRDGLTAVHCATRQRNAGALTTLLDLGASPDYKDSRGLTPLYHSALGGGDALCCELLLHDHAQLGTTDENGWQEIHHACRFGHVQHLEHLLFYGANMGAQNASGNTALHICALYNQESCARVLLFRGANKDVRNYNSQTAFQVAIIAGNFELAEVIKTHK
Shank3 N-terminus (residues 1-339) D69G, mRFP-tagged (Q9JLU4, form named): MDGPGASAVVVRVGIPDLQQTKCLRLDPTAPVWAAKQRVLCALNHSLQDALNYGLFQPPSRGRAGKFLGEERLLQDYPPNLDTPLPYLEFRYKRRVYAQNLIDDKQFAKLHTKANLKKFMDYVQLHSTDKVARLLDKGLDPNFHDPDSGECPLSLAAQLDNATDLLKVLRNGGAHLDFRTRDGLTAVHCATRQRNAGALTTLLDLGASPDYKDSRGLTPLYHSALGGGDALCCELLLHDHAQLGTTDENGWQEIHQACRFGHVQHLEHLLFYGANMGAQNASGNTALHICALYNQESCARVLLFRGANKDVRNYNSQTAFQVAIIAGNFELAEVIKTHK
Shank3 N-terminus (residues 1-339) L68P, mRFP-tagged (Q9JLU4, form named): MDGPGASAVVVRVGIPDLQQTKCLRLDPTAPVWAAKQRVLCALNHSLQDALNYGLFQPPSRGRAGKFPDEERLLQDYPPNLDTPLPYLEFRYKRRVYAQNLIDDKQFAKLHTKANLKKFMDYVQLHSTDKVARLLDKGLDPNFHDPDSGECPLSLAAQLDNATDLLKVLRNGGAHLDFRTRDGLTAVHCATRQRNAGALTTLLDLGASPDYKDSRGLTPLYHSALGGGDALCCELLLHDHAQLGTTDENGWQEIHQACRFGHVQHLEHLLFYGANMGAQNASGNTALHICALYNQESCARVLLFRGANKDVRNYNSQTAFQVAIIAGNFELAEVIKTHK
Shank3 N-terminus (residues 1-339) L270M, mRFP-tagged (Q9JLU4, form named): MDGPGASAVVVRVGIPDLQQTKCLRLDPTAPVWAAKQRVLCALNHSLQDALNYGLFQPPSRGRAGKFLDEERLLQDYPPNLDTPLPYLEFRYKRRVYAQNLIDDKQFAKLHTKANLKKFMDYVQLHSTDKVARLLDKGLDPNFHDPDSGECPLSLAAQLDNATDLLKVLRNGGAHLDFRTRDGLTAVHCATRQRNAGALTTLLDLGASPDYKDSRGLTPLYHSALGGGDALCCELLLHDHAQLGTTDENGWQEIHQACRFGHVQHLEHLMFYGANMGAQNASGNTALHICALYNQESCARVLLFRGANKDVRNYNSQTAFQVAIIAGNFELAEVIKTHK
Shank3 N-terminus (residues 1-339) Q317R, mRFP-tagged (Q9JLU4, form named): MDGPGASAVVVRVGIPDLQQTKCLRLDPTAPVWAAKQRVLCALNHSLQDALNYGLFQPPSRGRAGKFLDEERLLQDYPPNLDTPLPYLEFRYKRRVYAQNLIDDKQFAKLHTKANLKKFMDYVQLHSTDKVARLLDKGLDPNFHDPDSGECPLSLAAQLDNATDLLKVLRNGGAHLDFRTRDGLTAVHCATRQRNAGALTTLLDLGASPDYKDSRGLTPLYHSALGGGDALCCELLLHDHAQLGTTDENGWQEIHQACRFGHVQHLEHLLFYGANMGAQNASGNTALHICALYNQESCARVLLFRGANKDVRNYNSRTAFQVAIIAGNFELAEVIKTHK
Shank3 N-terminus (residues 1-339) N52R, mRFP-tagged (Q9JLU4, form named): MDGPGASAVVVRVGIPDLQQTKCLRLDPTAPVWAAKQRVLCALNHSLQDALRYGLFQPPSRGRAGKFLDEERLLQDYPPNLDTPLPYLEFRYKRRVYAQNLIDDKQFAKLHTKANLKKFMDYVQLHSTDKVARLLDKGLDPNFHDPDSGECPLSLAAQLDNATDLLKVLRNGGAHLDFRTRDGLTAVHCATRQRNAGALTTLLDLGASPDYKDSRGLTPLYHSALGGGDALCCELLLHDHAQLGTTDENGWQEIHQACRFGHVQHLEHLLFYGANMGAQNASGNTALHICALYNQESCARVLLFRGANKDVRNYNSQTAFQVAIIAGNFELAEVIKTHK
UniProt P62834: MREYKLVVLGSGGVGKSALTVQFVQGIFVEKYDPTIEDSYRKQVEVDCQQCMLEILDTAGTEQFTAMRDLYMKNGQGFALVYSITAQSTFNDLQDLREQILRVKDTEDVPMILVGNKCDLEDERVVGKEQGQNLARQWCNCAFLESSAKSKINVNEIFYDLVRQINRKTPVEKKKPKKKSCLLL
UniProt P11275: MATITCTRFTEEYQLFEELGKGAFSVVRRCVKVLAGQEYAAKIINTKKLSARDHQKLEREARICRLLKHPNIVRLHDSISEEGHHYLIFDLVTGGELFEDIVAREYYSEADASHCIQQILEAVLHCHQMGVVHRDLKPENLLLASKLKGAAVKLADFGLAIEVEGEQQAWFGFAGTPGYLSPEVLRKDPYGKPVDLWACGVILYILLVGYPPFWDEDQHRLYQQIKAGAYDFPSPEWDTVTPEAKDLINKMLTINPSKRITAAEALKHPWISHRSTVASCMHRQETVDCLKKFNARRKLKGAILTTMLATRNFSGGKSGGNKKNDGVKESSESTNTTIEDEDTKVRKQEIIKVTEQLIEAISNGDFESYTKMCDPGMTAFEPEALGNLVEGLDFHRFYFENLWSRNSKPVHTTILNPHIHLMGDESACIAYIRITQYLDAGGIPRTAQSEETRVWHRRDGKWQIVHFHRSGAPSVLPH

How the values were obtained:
Test in all cases: co-IP; mRFP-tagged Shank3 constructs coexpressed with the partner in 293T cells; lysis in IP buffer (50 mM Tris pH 8, 120 mM NaCl, 0.5% NP40, 1 mM EDTA); RFP-trap beads, five washes; Western blot of input and precipitate
[1] = target: Shank3 N-terminus (residues 1-339) P141A, mRFP-tagged (rat) (UniProt Q9JLU4)
[2] = target: Shank3 N-terminus (residues 1-339) Y272C, mRFP-tagged (rat) (UniProt Q9JLU4)
[3] = target: Shank3 N-terminus (residues 1-339) Q106P, mRFP-tagged (rat) (UniProt Q9JLU4)
[4] = target: Shank3 N-terminus (residues 1-339) T337S, mRFP-tagged (rat) (UniProt Q9JLU4)
[5] = target: Shank3 N-terminus (residues 1-339) G250C, mRFP-tagged (rat) (UniProt Q9JLU4)
[6] = target: Shank3 N-terminus (residues 1-339) Q256H, mRFP-tagged (rat) (UniProt Q9JLU4)
[7] = target: Shank3 N-terminus (SPN + Ank domains, residues 1-339), WT, mRFP-tagged (rat) (UniProt Q9JLU4)
[8] = target: Shank3 N-terminus (residues 1-339) D69G, mRFP-tagged (rat) (UniProt Q9JLU4)
[9] = target: Shank3 N-terminus (residues 1-339) L68P, mRFP-tagged (rat) (UniProt Q9JLU4)
[10] = target: Shank3 N-terminus (residues 1-339) L270M, mRFP-tagged (rat) (UniProt Q9JLU4)
[11] = target: Shank3 N-terminus (residues 1-339) Q317R, mRFP-tagged (rat) (UniProt Q9JLU4)
[12] = target: Shank3 N-terminus (residues 1-339) N52R, mRFP-tagged (rat) (UniProt Q9JLU4)
[13] = target: Shank3 N-terminus (SPN + Ank domains, residues 1-339), WT, mRFP-tagged (rat) (UniProt Q9JLU4); remark: listed apart in the source
[14] = target: Shank3 N-terminus (residues 1-339) D69G, mRFP-tagged (rat) (UniProt Q9JLU4); remark: listed apart in the source

Molecule: Rap1a G12V, GFP-tagged (constitutively active) (from UniProt P62834 1-184)
- binding [1]: binds
- binding [2]: binds
- binding [3]: binds
- binding [4]: binds
- binding [5]: binds
- binding [6]: binds
- binding [7]: binds
- binding [8]: binds
- binding [9]: no binding
- binding [10]: binds
- binding [11]: binds

Molecule: α-subunit of the calcium/calmodulin dependent kinase II, T7-tagged (from UniProt P11275 1-478) (enzyme)
- binding [3]: binds
- binding [12]: no binding
- binding [7]: binds

B1: δ-catenin, GFP-tagged (protein, UniProt O35927 1-1247)
chain: MFARKQSGAAPFGAMPVPDQPPSASEKNSSLSPGLNTSNGDGSETETTSAILASVKEQELQFERLTRELEAERQIVASQLERCKLGSETGSMSSISSAGEQFHWQTQDGQKDIEDELTTGLELVDSCIRSLQESGILDPQDYSTSERPSLLSQSALQLNSKPEGSFQYPASYHSNQTLALGDTAPSQLPARSTQARAAGQSFSQGTTGRAGHLAGSEPAPPPPPPREPFAPSLGSAFHLPDAPPAAAALYYSSSTLPAPPRGGSPLTTTQGGSPTKLQRGGSAPEGAAYAAPRGSSPKQSPSRLAKSYSTSSPINIVVSSAGLSPIRVTSPPTVQSTISSSPIHQLSSTIGTYATLSPTKRLVHASEQYSKHSQELYATATLQRPGSLAAGSRASYSSQHGHLAPELRALQSPEHHIDPIYEDRVYQKPPMRSLSQSQGDPLPPAHTGTFRTSTAPSSPGVDSVPLQRTGSQHGPQNAAAATFQRASYAAGPASNYADPYRQLQYCASVDSPYSKSGPALPPEGTLARSPSIDSIQKDPREFGWRDPELPEVIQMLQHQFPSVQSNAAAYLQHLCFGDNKIKAEIRRQGGIQLLVDLLDHRMTEVHRSACGALRNLVYGKANDDNKIALKNCGGIPALVRLLRKTTDLEIRELVTGVLWNLSSCDALKMPIIQDALAVLTNAVIIPHSGWENSPLQDDRKIQLHSSQVLRNATGCLRNVSSAGEEARRRMRECDGLTDALLYVIQSALGSSEIDSKTVENCVCILRNLSYRLAAETSQGQHMGTDELDGLLCGETNGKDTESSGCWGKKKKKKKSQDQWDGVGPLPDCAEPPKGIQMLWHPSIVKPYLTLLSECSNPDTLEGAAGALQNLAAGSWKGWAEDVAGMAYALRSLPEGAPCLPQWSVYIRAAVRKEKGLPILVELLRIDNDRVVCAVATALRNMALDVRNKELIGKYAMRDLVHRLPGGNNSNNSGSKAMSDDTVTAVCCTLHEVITKNMENAKALRDAGGIEKLVGISKSKGDKHSPKVVKAASQVLNSMWQYRDLRSLYKKDGWSQYHFVASSSTIERDRQRPYSSSRTPSISPVRVSPNNRSASAPASPREMISLKERKTDYESAGNNATYHGTKGEHTSRKDTMTAQNTGVSTLYRNSYGAPAEDIKQNQVSTQPVPQEPSRKDYETYQPFPNSTRNYDESFFEDQVHHRPPASEYTMHLGLKSTGNYVDFYSAARPYSELNYETSHYPASPDSWV
- binding [13]: binds
- binding [14]: binds
